Results reported in the supplement of paper PMC12340641.
The full ranking holds about 1,000 compounds; the median of “relative growth recovery (pomalidomide 10 uM = 100%, DMSO = 0%)” is about -1.6, and the highest 2% start at about 21. The list shows a part of the results.

system: HEK293FT dCK*-IKZF1; experiment: relative growth recovery (pomalidomide 10 uM = 100%, DMSO = 0%); higher = more growth rescue (IKZF1 fusion degradation); conditions: compound concentration: 5 uM; AraC concentration: 0.3 uM; overnight pretreatment + 4 days AraC
Protocol: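 Growth recovery screen of the molecular-glue-like (Specs) library. HEK293FT cells expressing a dCK*-IKZF1 fusion (primary) or dCK* alone (counter) were pretreated overnight with compound at 5 uM, then given 0.3 uM AraC for 4 days. Hoechst nuclei were counted by imaging. Primary: normalised to pomalidomide (100%) and DMSO (0%), mean of 2 replicates. Counter: normalised to no-AraC (100%) and AraC+DMSO (0%), single replicate.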

SMILES	relative growth recovery [%]
Cc1cc(NS(=O)(=O)c2ccc(NC(=O)c3ccc(Br)cc3)cc2)nc(C)n1	-1.85
Cc1cc(C)nc(NS(=O)(=O)c2ccc(NC(=O)c3sc4nc5c(cc4c3N)CCC5)cc2)n1	-3.65
COc1ccc(S(=O)(=O)Nc2ccc(S(=O)(=O)Nc3ncccn3)cc2)cc1	-2
Cc1cc(C)nc(NS(=O)(=O)c2ccc(NC(=O)c3ccccc3[N+](=O)[O-])cc2)n1	-3.98
CC(C)(N)C(=O)N1CCC(c2cccc(Nc3ncc(-c4cccnc4)s3)n2)CC1	-13.5
O=C1CCC(N2C(=O)c3ccc(C(=O)O)cc3C2=O)C(=O)N1 (configuration not stated)	-0.47
Cc1cc(NS(=O)(=O)c2ccc(NC(=O)c3cc4ccccc4o3)cc2)nc(C)n1	-0.785
Cc1ccc(C)c(OCC(=O)Nc2ccc(S(=O)(=O)Nc3ccccn3)cc2)c1	-5.29
Cc1nc(Nc2cccc(C3CCCN3C(=O)COCCN3CCCC3=O)n2)sc1C (configuration not stated)	5.06
CCC(Oc1ccccc1)C(=O)Nc1ccc(S(=O)(=O)Nc2nc(C)cc(C)n2)cc1 (configuration not stated)	-3.29
COc1cc(NS(=O)(=O)c2ccc(NC(=O)c3ccc(C#N)cc3)cc2)nc(OC)n1	-3.52
Cc1ncc(C(=O)N2CCOC(c3cccc(Nc4nc(C)c(C)s4)n3)C2)c(C)n1 (configuration not stated)	7
Cc1cc(C)nc(NS(=O)(=O)c2ccc(NC(=O)c3ccc(C(C)(C)C)cc3)cc2)n1	2.96
O=C(Nc1ccc(S(=O)(=O)Nc2ncccn2)cc1)C1CC(=O)N(CCc2ccc(F)cc2)C1 (configuration not stated)	-0.54
Cc1nc(C)c(C(=O)N2CCOC(c3cccc(Nc4ncc(C)s4)n3)C2)o1 (configuration not stated)	-12.6
Cc1ccc(N2C(=O)c3ccc(Oc4ccc(N)cc4)cc3C2=O)cc1	-1.57
Cc1cnc(Nc2cccc(C3CN(C(=O)C(C)n4cnc5ccccc54)CCO3)n2)s1 (configuration not stated)	-7.25
CCc1ccc(N2CC(C(=O)Nc3ccc(S(=O)(=O)Nc4ncccn4)cc3)CC2=O)cc1 (configuration not stated)	-0.75
CCCc1cnc(Nc2cccc(C3(CO)CCN(C(=O)C4CCCCC4)CC3)n2)s1	-17
Cn1c(=O)c2c(ncn2CC(=O)Nc2ccc(S(=O)(=O)Nc3ncccn3)cc2)n(C)c1=O	1.62
COc1nccnc1NS(=O)(=O)c1ccc(NC(=S)NC(=O)c2ccco2)cc1	-1.62
Cc1cc(C)cc(OCC(=O)Nc2ccc(S(=O)(=O)Nc3ccccn3)cc2)c1	-4.37
COc1cc2c(cc1CCC(=O)N1CCCC1c1cccc(Nc3nccs3)n1)CCC2 (configuration not stated)	5.58
COc1cc(C(=O)Nc2ccc(S(=O)(=O)Nc3ccccn3)cc2)cc(OC)c1OC	-2.18

SMILES	relative growth recovery [%]
Cc1ccnc(NS(=O)(=O)c2ccc(NC(=O)c3ccccc3C(=O)O)cc2)n1	-6.74
O=C1CCC(N2C(=O)c3cccc(N4CCC(Cn5cc(C(=O)O)cn5)CC4)c3C2=O)C(=O)N1 (configuration not stated)	2.77
COc1ccc(NS(=O)(=O)c2ccc(N)cc2)nn1	3.75
COc1cc(NS(=O)(=O)c2ccc(NC(=O)CCC(=O)O)cc2)nc(OC)n1	-2.29
Cc1nc(Nc2cccc(C3CCN(C(=O)CCc4c(C)n[nH]c4C)CC3)n2)sc1C	26
Cc1csc(Nc2cccc(C3CCCN3C(=O)c3ccc4c(c3)CCCN4C)n2)n1 (configuration not stated)	7.5
Cc1cccc(OCCCC(=O)Nc2ccc(S(=O)(=O)Nc3nc(C)cc(C)n3)cc2)c1	-2.6
O=C(O)CCOCCOCCOCCNc1ccc2c(c1)C(=O)N(C1CCC(=O)NC1=O)C2=O (configuration not stated)	-5.78
COCC(=O)N1CCCC1c1cccc(Nc2ncc(C)s2)n1 (configuration not stated)	2.41
COc1ccc(CC(=O)Nc2ccc(S(=O)(=O)Nc3ncccn3)cc2)cc1OC	-16.6
O=C1CCC(N2C(=O)c3cc(F)c(N4CCN(C5CCC(C(=O)O)CC5)CC4)cc3C2=O)C(=O)N1 (configuration not stated)	-5.74
Cc1ccc(OCC(=O)Nc2ccc(S(=O)(=O)Nc3ncccn3)cc2)cc1C	-1.98
Cc1nc(Nc2cccc(C3CN(CC(=O)N4CCC(C)CC4)CCO3)n2)sc1C (configuration not stated)	13
Cc1csc(Nc2cccc(C3CN(C(=O)c4[nH]nc5c4CCCCC5)CCO3)n2)n1 (configuration not stated)	3.46
Cc1ccc2[nH]c3nc(SCC(=O)Nc4cccc(Cl)c4Cl)nnc3c2c1	-3.27
O=C(/C=C/c1cccnc1)N1CCCC(c2cc3ccccc3c(Nc3nccs3)n2)C1 (configuration not stated)	-2.04
COc1ccc(NS(=O)(=O)c2ccc(NS(=O)(=O)c3ccc(C)cc3)cc2)nn1	0.72
Cc1cc(NS(=O)(=O)c2ccc(NC(=O)COc3cccc(Br)c3)cc2)nc(C)n1	-4.59
Cc1cc(C)nc(NS(=O)(=O)c2ccc(NC(=S)NC(=O)/C=C/c3ccco3)cc2)n1	-2.82
O=C(COc1ccc(-c2ccccc2)cc1)Nc1ccc(S(=O)(=O)Nc2ccccn2)cc1	-1.72
Cc1ccnc(NS(=O)(=O)c2ccc(NS(=O)(=O)c3ccc(F)cc3)cc2)n1	-0.59
COc1cccc(CC(=O)N2CCC(c3cccc(Nc4nc(C)c(C)s4)n3)CC2)c1	-1.79
CC(C)(C)c1ccc(OCC(=O)Nc2ccc(S(=O)(=O)Nc3ccccn3)cc2)cc1	-5.39
